15 compounds from US7816326B2, “Sulfur compounds as inhibitors of hepatitis C virus NS3 serine protease” (Schering Corporation, priority 2004, dated 2010) can be followed below.

Read-outs that look alike come from different tables or passages of the source.

For this assay, the target named is Recombinant heterodimeric HCV NS3/NS4A protease (strain 1a) (Hepatitis C virus genotype 1a, UniProt P27958). The assay can be described thus: Spectrophotometric assay for HCV protease inhibitory activity. It counts as biochemical.
Where [1] appears, read: HCV serine protease inhibitory activity ranges, read-out: Ki* Range.

With `C=CCNC(=O)C(=O)C(CCC)NC(=O)[C@@H]1[C@@H]2[C@H](CN1C(=O)[C@@H](NC(=O)N[C@H]([C@H]1CCN(C)S1(=O)=O)C(C)(C)C)C1(C)CCCCC1)C2(C)C` (stereo partly shown) [compound 1224], under setting [1], the inhibition constant (Ki) fell in the range of 75 to 250 nM.
Take `CCC[C@H](NC(=O)[C@@H]1[C@@H]2[C@H](CN1C(=O)[C@@H](NC(=O)NC1(CS(=O)(=O)N(C)C(C)C)CCCCC1)C1(C)CCCCC1)C2(C)C)C(=O)C(=O)NC1CC1` [compound 1255]: under setting [1], the inhibition constant (Ki) was under 75 nM.
On the same count and under the same terms, the value for `CN1CC[C@H](C2(NC(=O)N[C@H](C(=O)N3C[C@H]4[C@@H]([C@H]3C(=O)N[C@@H](CCC3CC3)C(=O)C(=O)NC3CC3)C4(C)C)C(C)(C)C)CCCCC2)S1(=O)=O` [compound 1203] was under 75 nM.
As to `CN(C1CC1)S(=O)(=O)CC1(NC(=O)N[C@H](C(=O)N2C[C@H]3[C@@H]([C@H]2C(=O)N[C@@H](CC2CC2)C(=O)C(=O)NC2CC2)C3(C)C)C2(C)CCCCC2)CCCCC1` [compound 1308], the Ki under setting [1] was under 75 nM.
Same read-out and setting: in the case of `CCC[C@H](NC(=O)[C@@H]1[C@@H]2[C@H](CN1C(=O)[C@@H](NC(=O)NC1(CS(=O)(=O)N(C)C(C)C)CCCCC1)C(C)(C)C)C2(C)C)C(=O)C(=O)NC1CC1` [compound 1250] it was under 75 nM.
The same measure, in the same setting: in the case of `CCC[C@H](NC(=O)[C@@H]1[C@@H]2[C@H](CN1C(=O)[C@@H](NC(=O)NC1(CS(=O)(=O)NC)CCCCC1)C(C)(C)C)C2(C)C)C(=O)C(=O)NC1CC1` [compound 1247] it was under 75 nM; in that of `CC(C)N(C(C)C)S(=O)(=O)CC1(NC(=O)N[C@H](C(=O)N2C[C@H]3[C@@H]([C@H]2C(=O)N[C@@H](CC2CC2)C(=O)C(=O)NC2CC2)C3(C)C)C2(C)CCCCC2)CCCCC1` [compound 1356], under 75 nM.
As to `C[C@H](C1(NC(=O)N[C@H](C(=O)N2C[C@H]3[C@@H]([C@H]2C(=O)N[C@@H](CCC2CC2)C(=O)C(=O)NC2CC2)C3(C)C)C(C)(C)C)CCCCC1)S(=O)(=O)N(C)C1CC1` [compound 1416], the Ki under setting [1] was under 75 nM.
In the case of `CCC[C@H](NC(=O)[C@@H]1[C@@H]2[C@H](CN1C(=O)[C@@H](NC(=O)NC1(CS(=O)(=O)N(CC)CC)CCCCC1)C(C)(C)C)C2(C)C)C(=O)C(=O)NC1CC1` [compound 1258], the inhibitory constant (Ki) (HCV NS3/NS4A protease, chromogenic ester substrate, 30° C., pH 6.5, read-out: Ki*) turned out to be 8 nM and the Ki under setting [1] is under 75 nM.
For `CCC[C@H](NC(=O)[C@@H]1[C@@H]2[C@H](CN1C(=O)[C@@H](NC(=O)NC1(CS(=O)(=O)N(C)C3CC3)CCCCC1)C1(C)CCCCC1)C2(C)C)C(=O)C(=O)NC1CC1` [compound 1307], the Ki under setting [1] was under 75 nM.
Same read-out and setting: the value for `CCN(C(C)C)S(=O)(=O)CC1(NC(=O)N[C@H](C(=O)N2C[C@H]3[C@@H]([C@H]2C(=O)N[C@@H](CC2CC2)C(=O)C(=O)NC2CC2)C3(C)C)C2(C)CCCCC2)CCCCC1` [compound 1306] was under 75 nM; that for `C#CCC[C@H](NC(=O)[C@@H]1[C@@H]2[C@H](CN1C(=O)[C@@H](NC(=O)NC1(CS(=O)(=O)N(C)C)CCCCC1)C1CCCCC1)C2(C)C)C(=O)C(=O)NC1CC1` [compound 1244] was under 75 nM; that for `CN(CC(F)(F)F)S(=O)(=O)CC1(NC(=O)N[C@H](C(=O)N2C[C@H]3[C@@H]([C@H]2C(=O)N[C@@H](CC2CC2)C(=O)C(=O)NC2CC2)C3(C)C)C(C)(C)C)CCCCC1` [compound 1318] was under 75 nM.
On the same count and under the same terms, in the case of `CCC[C@H](NC(=O)[C@@H]1[C@@H]2[C@H](CN1C(=O)[C@@H](NC(=O)NC1([C@@H]3CCN(CC)S3(=O)=O)CCCCC1)C(C)(C)C)C2(C)C)C(=O)C(=O)NC1CC1` [compound 1209] it was under 75 nM; in that of `CON(C)S(=O)(=O)CC1(NC(=O)N[C@H](C(=O)N2C[C@H]3[C@@H]([C@H]2C(=O)N[C@@H](CCC2CC2)C(=O)C(=O)NC2CC2)C3(C)C)C2(C)CCCCC2)CCCCC1` [compound 1232], under 75 nM.
